Measurements: PubChem BioAssay AID743279 (National Center for Advancing Translational Sciences (NCATS), 2014)
The campaign covered roughly 360,000 compounds. About 17,000 (4.7%) were called active. The shares of active, inactive and inconclusive entries below differ from those in the screen. Rule as the data show it: active = activity change below about -50%; inconclusive = mostly about -30% to -49%; inactive = weaker than that.

Assay: qHTS for Inhibitors of Inflammasome Signaling: IL-1-beta AlphaLISA Primary Screen
Details: THP-1 LPS/ATP IL-1B secretion, 16 h; at 57.5 µM, hits give low values
Summary of the method: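 THP-1 cells pretreated 1 hr with compounds (up to 57.5 uM final), then stimulated with LPS (250 ng/mL final) plus ATP (1.25 mM final); secreted IL-1B measured by AlphaLISA after 16 hr, decreased signal indicating inhibition.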
% is scaled to controls: 0 for no effect and ±100 for the full control effect.

Row | Compound | activity change
1 | CN(C)c1ccc(/C=C/C(=O)c2cccnc2)cc1 | inconclusive: -41.1%
2 | O=C(O)CC(Cc1ccc(Cl)cc1)C(=O)Nc1cc(Cl)ccc1Cl (stereo not given) | inactive: 23.8%
3 | CCOC(=O)Cn1c(=O)c(C#N)cn(C(C)C)c1=O | inactive: 32.2%
4 | CCOC(=O)c1sc(NC(=O)Nc2cccc(Cl)c2)cc1C | active: -76%
5 | CNCCCC1Sc2ccccc2Oc2ccccc21 (stereo not given) | active: -73.3%
6 | CCOC(=O)C1(Cc2ccc(Cl)cc2)CCN(C(=O)CCc2ccncc2)CC1 | inconclusive: -46.6%
7 | CCN(CC)c1ccc(C2CC(=O)Nc3cc(OC)c(OC)cc32)cc1 (stereo not given) | inactive: -18.5%
8 | COc1ccccc1OCCNC(=O)C1CC(=O)N(c2cccc(SC)c2)C1 (stereo not given) | inactive: -20.3%
9 | c1ccc2[nH]c(CN3CCN(c4ncnc5c4oc4ccccc45)CC3)nc2c1 | inconclusive: -32.7%
10 | CCC(=NCCc1c(C)[nH]c2ccccc12)C1=C(O)CC(c2ccccc2)CC1=O (stereo not given) | inconclusive: -32.3%
11 | Cc1ccc(/C=C/C(=O)N2CCc3ccccc32)o1 | active: -80.8%
12 | C=CCn1c(O)c(N=Nc2ccccc2[N+](=O)[O-])c2ccccc21 | inactive: 30.6%
13 | O=C(NCCCN1CCOCC1)c1ccc(Sc2ccccc2Cl)c([N+](=O)[O-])c1 | active: -52.4%
14 | COc1ccc(CNC(=O)COC(=O)C2(C)CC2(Cl)Cl)cc1 (stereo not given) | inconclusive: -48.4%
15 | Cc1ccc2c(Cl)cc(Cl)c(OCC(=O)Nc3cc(S(=O)(=O)N(C)C)ccc3C)c2n1 | inconclusive: -47.4%
16 | O=Nc1ccc(O)c2ncccc12 | active: -98.2%
17 | Cc1ccc(S(=O)(=O)N(Cc2ccc(Cl)cc2)c2ccccc2C(=O)NCc2cccnc2)cc1 | inconclusive: -32.8%
18 | CC(SC1=NCCN1S(=O)(=O)c1ccc(F)cc1)c1ccccc1 (stereo not given) | inconclusive: -45.1%
19 | NC(=S)N/N=C/c1ccc(-c2ccc(Cl)c(Cl)c2)o1 | inactive: 20.8%
20 | COc1ccc(-c2nc(C(N)=O)c3[nH]c(=O)n(-c4cccc(C)c4)c3n2)c(OC)c1 | inactive: -8.98%
21 | O=C(Nc1cccc(Br)c1)c1cccc(OC(=S)N2CCOCC2)c1 | active: -66.8%
22 | Cc1ccc(C)n1-c1ccc(C(=O)NN)s1 | inconclusive: -36.9%
23 | CCc1ccc(Sc2cc(C(=O)NCCN3CCOCC3)c3ccccc3n2)cc1 | inconclusive: -41.3%
24 | O=C(NCCc1ccc(Cl)cc1)c1cc(-c2ccccn2)nc2ccccc12 | inactive: 0%
25 | COc1ccc(/C=N/NC(=O)c2ccoc2C)cc1COc1c(C)cccc1C | inactive: 5.61%
